# Reference: the supplement of paper PMC12217912
# The list shows a part of the results. The full chains were built here from the parent and the listed change. Inactive controls read about 0.05.
# B1: TEV protease; numbered along this chain (parent)
# chain: MGESLFKGPRDYNPISSSICHLTNESDGHTTSLYGIGFGPFIITNKHLFRRNNGTLVVQSLHGVFKVKDTTTLQQHLVDGRDMIIIRMPKDFPPFPQKLKFREPQREERICLVTTNFQTKSMSSMVSDTSCTFPSGDGIFWKHWIQTKDGQCGSPLVSTRDGFIVGIHSASNFTNTNNYFTSVPKNFMELLTNQEAQQWVSGWRLNADSVLWGGHKVFMVKPEEPFQPVKEATQL
# Variants of: B1
# Assay: raw area under fraction-flipped curve 0-4 h after induction (AUC4h, not background-subtracted), DNA-recorder readout of cleavage of the substrate (dimensionless); higher = more cleavage of the substrate by the protease variant
# Details: temperature: 34 °C; time window: 0-4 h after rhamnose induction
# Procedure: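 In vivo DNA recorder in E. coli TOP10(DE3) ΔrhaA at 34 °C. Each TEVp single-site mutant (parent TEVp 0) is paired with a single-site variant of the 7-mer TEVs (canonical ENLYFQ|S). The substrate sits between flexible linkers in a Bxb1-sfGFP-TEVs-SsrA fusion, so cleavage stabilises Bxb1 and speeds flipping of a recombination array, read by NGS. The value is the raw area under the fraction-flipped curve over 0-4 h after rhamnose induction (AUC4h), with ≥20 reads per time point. It is not background-subtracted; inactive controls average about 0.047.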
# 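Also: Bxb1 expression induced with 0.2% (w/v) L-rhamnose at OD600 near 0.5, cultures sampled hourly, flipped fraction per protease–substrate barcode pair counted by paired-end Illumina sequencing.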
Variant,area with substrate CNLYFQS,area with substrate FNLYFQS,area with substrate HNLYFQS,area with substrate LNLYFQS,area with substrate MNLYFQS,area with substrate NNLYFQS,area with substrate RNLYFQS,area with substrate SNLYFQS,area with substrate TNLYFQS,area with substrate YNLYFQS,area with substrate INLYFQS,area with substrate KNLYFQS,area with substrate PNLYFQS,area with substrate WNLYFQS,area with substrate VNLYFQS,area with substrate GNLYFQS,area with substrate QNLYFQS
G2Q,0.07,0.0646,0.0496,0.0652,0.0646,0.0797,0.0778,0.0687,0.0681,0.0754,,,,,,,
E3G,0.0655,,0.0604,0.0693,,,0.0434,0.0625,0.0661,0.0343,0.0557,0.0515,0.0632,0.0638,,,
E3P,0.0661,,0.0661,0.079,,,,0.0477,0.0929,0.092,0.0649,,0.0417,,0.0614,,
S4E,0.0873,0.0706,0.0559,0.0865,,,0.0668,0.0838,,0.0775,0.0706,,0.0893,0.0336,,0.0782,0.0753
S4K,0.0678,0.0599,0.0781,0.105,0.0817,,0.0605,0.0652,0.0696,0.081,,,0.0764,0.0519,0.0733,0.0726,
S4P,0.0774,0.0563,0.0805,0.0602,0.0588,0.068,,0.0817,0.0642,0.0654,0.062,0.0657,0.0675,0.0602,0.0745,0.0639,0.0747
S4V,0.0866,0.0697,0.0483,,0.0624,0.073,,,,0.068,,0.0726,0.0708,,,0.0516,
L5Q,0.0685,,0.0569,0.0605,,0.0731,,,0.032,0.0291,0.0672,0.0721,0.0726,,0.0662,0.0705,
K7A,0.0719,,0.0676,,,,,0.097,0.0654,0.0615,,0.0691,,0.0664,,0.0715,
P9A,0.0519,,0.0615,0.0654,,,0.0516,0.0696,0.0593,,0.0678,0.0714,0.065,0.0533,0.0607,,
R10I,0.0634,0.0737,,0.0773,,,,,0.0622,,,0.0661,0.0538,0.0402,,,
R10L,0.0625,0.0782,,0.0659,0.0666,0.0668,,0.0636,0.0708,,,0.0728,0.0784,0.0452,,0.0667,
D11I,0.0614,,0.0788,,0.0621,,,,0.0799,,0.0635,,0.0634,0.0606,0.0742,,0.066
D11K,0.0647,,0.0685,0.0645,,0.0721,,,0.0565,0.0487,0.0621,0.0576,0.0634,0.0581,0.0704,,0.0556
D11R,0.0666,0.0608,0.0744,0.0541,0.072,,0.0685,0.0642,,0.0806,0.0493,0.0821,0.0707,0.0607,0.0654,,
Y12P,0.065,,0.0616,0.036,0.0687,0.0455,0.078,0.0656,,0.0695,0.0688,0.0644,0.0638,0.0577,0.0636,0.0629,0.083
